Source: the supplement of paper PMC9446081
In all, about 39,000 compounds went through this assay and about 220 (0.56%) showed activity. The list shows a part of the results.

Test system: Escherichia coli K-12 BW25113
Test: relative growth (OD600 normalised to plate interquartile mean) (fraction); higher = less growth inhibition, active = 0.2 or less
Conditions: 50 µM; LB; incubation time: overnight (16-24 h)
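Note: static incubation at 37 °C against the wild-type strain, values averaged over two biological replicates.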

| SMILES | relative growth |
| --- | --- |
| C[C@@H]1CCCCO[C@@H](CN(C)C(=O)Cc2ccccc2)[C@@H](C)CN([C@H](C)CO)C(=O)c2cc(NC(=O)Nc3ccccc3)ccc2O1 | inactive: 1.02 |
| C[C@H]1CN([C@@H](C)CO)C(=O)c2cc(NC(=O)Cn3cnnn3)ccc2O[C@@H]1CN(C)S(=O)(=O)c1cn(C)cn1 | inactive: 1 |
| Cc1csc(S(=O)(=O)N(CC(C)C)c2cc3c(cc2OCc2ccc(C(=O)O)cc2)CCC3)n1 | inactive: 1.01 |
| C[C@H]1CN([C@@H](C)CO)S(=O)(=O)c2ccc(-c3ccncc3)cc2O[C@H]1CN(C)C(=O)c1cccc(F)c1 | inactive: 1 |
| C[C@H](CO)N1C[C@H](C)[C@@H](CN(C)C(=O)Nc2ccc3c(c2)OCO3)Oc2ccc(NC(=O)C3CC3)cc2C1=O | inactive: 0.988 |
| C[C@@H]1CN([C@@H](C)CO)C(=O)c2cccc(NS(C)(=O)=O)c2O[C@H]1CN(C)S(=O)(=O)c1ccc(Cl)cc1 | inactive: 1 |
| C[C@H]1CN([C@@H](C)CO)C(=O)c2cccc(NC(=O)Nc3ccc(F)cc3)c2O[C@H]1CN(C)C(=O)Nc1ccc(C(F)(F)F)cc1 | inactive: 0.982 |
| [O-][NH2+]N1CCCCC1 | inactive: 1.01 |
| C[C@H]1CCCCO[C@H](CN(C)C(=O)Nc2cccc3ccccc23)[C@@H](C)CN([C@@H](C)CO)C(=O)c2cc(NC(=O)C3CCCCC3)ccc2O1 | inactive: 1.02 |
| C[C@H]1CN([C@@H](C)CO)C(=O)c2cc(NS(=O)(=O)c3cn(C)cn3)ccc2O[C@@H]1CN(C)C(=O)Nc1ccccc1 | inactive: 1 |
| C[C@@H]1CCCCO[C@H](CN(C)S(=O)(=O)c2cccs2)[C@H](C)CN([C@@H](C)CO)C(=O)c2cc(NS(=O)(=O)c3cn(C)cn3)ccc2O1 | inactive: 1.01 |
| C[C@@H]1CCCCO[C@@H](CN(C)C(=O)Nc2cccc3ccccc23)[C@H](C)CN([C@H](C)CO)C(=O)c2cc(NS(C)(=O)=O)ccc2O1 | inactive: 1.04 |
| Cc1cccc(N2CCC(N)CC2)c1 | inactive: 0.981 |
| COc1ccc(CN(C)C[C@@H]2Oc3c(NS(=O)(=O)c4cn(C)cn4)cccc3C(=O)N([C@H](C)CO)C[C@H]2C)cc1 | inactive: 0.993 |
| C[C@H]1COC(=O)[C@@H](NC(=O)OCC2c3ccccc3-c3ccccc32)CC=CC[C@@H](CC(=O)NCCO)C(=O)N1 | inactive: 1.01 |
| COc1cccc(S(=O)(=O)N(C)C[C@H]2Oc3ncc(Br)cc3C(=O)N([C@H](C)CO)C[C@H]2C)c1 | inactive: 0.99 |
| C[C@@H]1CCCCO[C@@H](CN(C)Cc2ccccc2)[C@@H](C)CN([C@H](C)CO)C(=O)c2cc(NC(=O)c3ccncc3)ccc2O1 | inactive: 1.01 |
| COc1ccccc1NC(=O)N(C)C[C@H]1Oc2ncc(C#CCN(C)C)cc2C(=O)N([C@H](C)CO)C[C@H]1C | inactive: 0.992 |
| C[C@H](CO)N1C[C@H](C)[C@H](CN(C)Cc2ccc(Cl)c(Cl)c2)Oc2c(NC(=O)C3CCCCC3)cccc2C1=O | inactive: 1.01 |
| COc1ccc(S(=O)(=O)N(C)C[C@@H]2OCCCC[C@@H](C)Oc3ccc(NC(=O)c4ccccc4)cc3C(=O)N([C@@H](C)CO)C[C@@H]2C)cc1 | inactive: 1.03 |

| SMILES | relative growth |
| --- | --- |
| COc1ccc(S(=O)(=O)N(C)C[C@H]2Oc3ccc(NS(=O)(=O)c4ccc(C)cc4)cc3CC(=O)N([C@H](C)CO)C[C@@H]2C)cc1 | inactive: 1.03 |
| Cc1ccc(S(=O)(=O)Nc2ccc3c(c2)CC(=O)N([C@@H](C)CO)C[C@H](C)[C@H](CN(C)CC2CC2)O3)cc1 | inactive: 0.965 |
| COc1ccc(S(=O)(=O)N[C@@H]2C=C[C@@H](CC(=O)N3CCC(Cc4ccccc4)CC3)O[C@@H]2CO)cc1 | inactive: 1 |
| CC(C)NC(=O)N(C)C[C@@H]1Oc2ccc(NC(=O)C3CCCCC3)cc2CC(=O)N([C@H](C)CO)C[C@H]1C | inactive: 0.994 |
| C[C@@H]1CN([C@@H](C)CO)C(=O)CCCn2nncc2CO[C@H]1CN(C)C(=O)Nc1ccc(C(F)(F)F)cc1 | inactive: 0.929 |
| CC(=O)n1cc([C@H]2C=C(C(=O)N3CCOCC3)O[C@@H](OCCCCOC(=O)NCCCCCC(=O)NO)C2)c2ccccc21 | inactive: 0.99 |
| C[C@@H]1CCCCO[C@H](CN(C)C(=O)Cc2ccccc2)[C@@H](C)CN([C@@H](C)CO)C(=O)c2cc(NC(=O)Nc3ccc(C(F)(F)F)cc3)ccc2O1 | inactive: 1.03 |
| COc1ccc(S(=O)(=O)Nc2ccc3c(c2)CC(=O)N([C@@H](C)CO)C[C@@H](C)[C@H](CN(C)S(=O)(=O)c2ccc(C)cc2)O3)cc1 | inactive: 1.05 |
| Cc1noc(C)c1NC(=O)N(C)C[C@H]1Oc2ccc(NS(=O)(=O)c3cn(C)cn3)cc2C(=O)N([C@H](C)CO)C[C@@H]1C | inactive: 0.994 |
| CCCCc1cn(C[C@H](Cc2ccccc2)NC(=O)N[C@H](CO)CCc2oc(C(C)=O)c(C(=O)OC)c2C(=O)OC)nn1 | inactive: 1.02 |
| N[C@@H]1CCCN(Cc2ccncc2)[C@H]1c1ccccc1F | inactive: 1.01 |
| COc1ccc(NC(=O)Nc2ccc3c(c2)C(=O)N([C@@H](C)CO)C[C@H](C)[C@H](CN(C)C(=O)c2ccccc2)OCCCC[C@@H](C)O3)cc1 | inactive: 1.01 |
| C[C@@H](NC(=O)c1ccnn1C)[C@H]1CCCO1 | inactive: 0.992 |
| COc1ccc(NC(=O)Nc2ccc3c(c2)C(=O)N([C@H](C)CO)C[C@H](C)[C@H](CN(C)Cc2ccc(C(F)(F)F)cc2)O3)cc1 | inactive: 1 |
| O=C1CCCNCC1 | inactive: 0.984 |
| C[C@@H]1CN([C@H](C)CO)C(=O)c2cc(C#Cc3ccccn3)cnc2O[C@H]1CN(C)C(=O)CCN1CCCCC1 | inactive: 0.993 |
| Cc1cc(C(=O)Nc2cccc3c2O[C@@H](CN(C)Cc2ccc4c(c2)OCO4)[C@@H](C)CN([C@H](C)CO)C3=O)n(C)n1 | inactive: 0.997 |
| C[C@@H]1CN([C@H](C)CO)C(=O)c2cc(NS(=O)(=O)c3ccccc3)ccc2O[C@@H](C)CCCCO[C@@H]1CN(C)Cc1ccc(Cl)c(Cl)c1 | inactive: 1.02 |
| COc1ccc(NC(=O)N(C)C[C@H]2Oc3c(NC(=O)c4cnccn4)cccc3C(=O)N([C@H](C)CO)C[C@H]2C)cc1 | inactive: 0.983 |
